Laboratory results reported in the supplement of paper PMC3334620.
Whole data set: some 33,000 sequences, median “E-score (-0.5 to 0.5)” near -0.035, cut for the highest 2% near 0.35. Some of the results follow.

The sequences below were run against T1, Pdr3 (UniProt P33200) (assay: PBM E-score (8-mer binding enrichment) (E-score (-0.5 to 0.5)); higher = stronger / more preferred TF binding; most listed sequences are background and not binding sites). Conditions: protein concentration: 200 nM; construct: GST-full length.
T1 sequence: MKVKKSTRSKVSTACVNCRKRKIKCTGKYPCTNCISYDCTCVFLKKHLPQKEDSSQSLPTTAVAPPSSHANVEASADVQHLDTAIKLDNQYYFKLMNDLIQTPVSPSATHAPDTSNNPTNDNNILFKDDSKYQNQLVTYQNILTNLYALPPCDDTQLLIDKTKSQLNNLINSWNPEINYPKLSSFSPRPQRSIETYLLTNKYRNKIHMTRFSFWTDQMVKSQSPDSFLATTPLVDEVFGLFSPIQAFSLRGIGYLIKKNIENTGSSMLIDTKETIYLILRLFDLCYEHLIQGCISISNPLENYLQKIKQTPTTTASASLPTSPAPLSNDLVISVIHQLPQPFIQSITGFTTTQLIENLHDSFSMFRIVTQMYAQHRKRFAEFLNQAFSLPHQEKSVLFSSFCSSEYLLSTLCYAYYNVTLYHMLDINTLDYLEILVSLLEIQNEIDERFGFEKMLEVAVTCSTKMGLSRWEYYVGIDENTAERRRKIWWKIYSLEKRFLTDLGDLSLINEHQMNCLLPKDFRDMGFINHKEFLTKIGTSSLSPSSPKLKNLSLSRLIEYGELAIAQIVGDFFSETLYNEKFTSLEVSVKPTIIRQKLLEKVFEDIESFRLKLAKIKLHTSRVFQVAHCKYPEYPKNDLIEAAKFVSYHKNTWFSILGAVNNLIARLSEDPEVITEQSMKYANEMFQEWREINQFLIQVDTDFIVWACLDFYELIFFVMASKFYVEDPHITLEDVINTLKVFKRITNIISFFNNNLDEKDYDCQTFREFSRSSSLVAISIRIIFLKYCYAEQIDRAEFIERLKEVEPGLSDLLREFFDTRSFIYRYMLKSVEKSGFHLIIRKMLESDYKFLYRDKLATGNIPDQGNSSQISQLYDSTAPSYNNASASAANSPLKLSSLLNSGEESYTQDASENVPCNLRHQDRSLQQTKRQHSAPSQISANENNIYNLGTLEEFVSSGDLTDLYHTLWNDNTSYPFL
Summary of the method: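 Masliner-normalised scans of fluorescent anti-GST signal were the basis for scoring. That signal came from GST-tagged yeast transcription factors applied at about 100-200 nM to double-stranded universal all-10-mer Agilent arrays on fresh or once-stripped slides. Each ungapped eight-base word, pooled with its reverse complement, received an E-score from the Universal PBM Analysis Suite.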

Sequence | PBM E-score
ATAAGAAA | 0.0247
ACTAACCG | 0.1
ACCCGAGT | 0.218
ATTTCCCC | 0.0635
GATGCACA | 0.0149
GTTGTCGA | -0.00166
ATGATGTA | 0.036
AGCACATA | -0.113
ACTCGGGC | 0.0775
AGGTGGTG | -0.202
CTATAGAA | -0.188
GATGATCC | 0.158
CTAACCGC | -0.0294
CCGGAGAG | 0.363
ATGCTTTC | -0.0701
GGTATTTA | 0.0219
AAAAGAAG | -0.0181
ACGGACCG | 0.309
GAACTTGA | 0.0655
CCTTGAAG | -0.269
ACCCCATA | 0.0987
AGAAGGAT | -0.296

Sequence | PBM E-score
GCGTTATA | -0.00346
GACTCCCA | -0.241
TACGTGCA | 0.0826
CACATCAA | 0.00696
GGGTCGTA | -0.0591
GACACGAA | -0.00782
AGCTCTAG | -0.0956
GAATCAAC | 0.179
CATGGGTC | -0.0685
GCATGCAC | -0.0969
CCGAATCA | 0.172
GCCATTAA | 0.0232
ACAGTCCC | -0.033
TAGGGGAA | -0.157
ATGGAGTG | -0.146
ACTATCAT | 0.061
AAGTGAAG | -0.0932
AAACGGCT | -0.0409
CGTGCCTA | -0.144
CTCAGGCC | -0.178
ATCCCCCC | -0.285
ACCGCAAC | 0.254

Sequence | PBM E-score
CGTATATC | -0.0754
CGCCAGGC | 0.185
CTTTTCCA | -0.215
AGTACTCG | 0.0205
ACTCCGCT | 0.14
AGGTTAGA | -0.00179
AGTTCACA | -0.134
TCAATCAA | 0.177
AAGAGTCT | -0.203
CAAGGTCG | 0.0589
CGAGTTAA | 0.121
CACTGAAG | 0.151
CGGGCCTC | 0.0999
AATTGGTA | -0.0654
CCATTAGC | -0.223
CGATTCAG | -0.15
GCTGTCTA | -0.284
TACCACAA | -0.112
AGCAGGCA | -0.21
AGTCGATC | 0.121
TCCTAACA | -0.19
AAAACACC | -0.0175

Sequence | PBM E-score
ACGACAAA | 0.0239
CTTCAGCC | -0.229
ACGTAGCG | -0.163
ATTTTACA | -0.287
CTCCCCTA | 0.0177
CGCTTGCA | -0.00607
CGCCGCAG | 0.066
TAGCCTCA | -0.213
CTCAATCC | 0.0935
GGCGACTA | -0.0929
ACGCCAGC | -0.133
TCCCGACA | 0.148
AGACTTCA | -0.354
AATAAGAA | 0.164
AAAGAATA | -0.00807
GTCCTCTA | -0.222
ATGGGCCC | 0.196
CAACGGAC | 0.261
CTTCGTGC | -0.219
AGGGCGTC | 0.0756
